# Data: paper PMC9911399, “Two distinct binding modes provide the RNA-binding protein RbFox with extraordinary sequence specificity”
# Numbering of substitutions follows the chain as printed; changes in the protein carry UniProt numbers. Some of the results follow.
# T1: RBFOX1 RRM RbFoxmut (Fox-RRM*) (Homo sapiens, UniProt Q9NWB1 109-208, R118D;E147R;N151S;E152T)
# T1 sequence: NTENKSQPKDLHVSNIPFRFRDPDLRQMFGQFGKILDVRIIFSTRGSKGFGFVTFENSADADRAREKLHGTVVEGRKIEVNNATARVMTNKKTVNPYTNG
# B1: GCGCAGA (DNA:RNA)
# RNA: GGGAGACCGGAAUUCAGAUUGUCCGCGCAGAUUAAAUCCCGUCGUAGCCACCA
# DNA 1: CAATCTGAATTCCGGTCTCCC
# DNA 2: TGGTGGCTACGACGGGATT
# B2: UAAUAGC (DNA:RNA)
# RNA: B1 RNA with G25U, C26A, G27A, C28U, A31C
# DNA 1: CAATCTGAATTCCGGTCTCCC
# DNA 2: TGGTGGCTACGACGGGATT
# B3: ACAAAUC (DNA:RNA)
# RNA: B1 RNA with G25A, G27A, C28A, G30U, A31C
# DNA 1: CAATCTGAATTCCGGTCTCCC
# DNA 2: TGGTGGCTACGACGGGATT
# B4: AGGCAUU (DNA:RNA)
# RNA: B1 RNA with G25A, C26G, G30U, A31U
# DNA 1: CAATCTGAATTCCGGTCTCCC
# DNA 2: TGGTGGCTACGACGGGATT
# B5: AUUCCCG (DNA:RNA)
# RNA: B1 RNA with G25A, C26U, G27U, A29C, G30C, A31G
# DNA 1: CAATCTGAATTCCGGTCTCCC
# DNA 2: TGGTGGCTACGACGGGATT
# B6: UCUUCCG (DNA:RNA)
# RNA: B1 RNA with G25U, G27U, C28U, A29C, G30C, A31G
# DNA 1: CAATCTGAATTCCGGTCTCCC
# DNA 2: TGGTGGCTACGACGGGATT
# B7: CCGUCUC (DNA:RNA)
# RNA: B1 RNA with G25C, C28U, A29C, G30U, A31C
# DNA 1: CAATCTGAATTCCGGTCTCCC
# DNA 2: TGGTGGCTACGACGGGATT
# B8: UUCGGAG (DNA:RNA)
# RNA: GGGAGACCGGAAUUCAGAUUGUCCUUCGGAGUUAAAUCCCGUCGUAGCCACCA
# DNA 1: CAATCTGAATTCCGGTCTCCC
# DNA 2: TGGTGGCTACGACGGGATT
# B9: UCAGAUC (DNA:RNA)
# RNA: B1 RNA with G25U, G27A, C28G, G30U, A31C
# DNA 1: CAATCTGAATTCCGGTCTCCC
# DNA 2: TGGTGGCTACGACGGGATT
# B10: ACCCAUC (DNA:RNA)
# RNA: B1 RNA with G25A, G27C, G30U, A31C
# DNA 1: CAATCTGAATTCCGGTCTCCC
# DNA 2: TGGTGGCTACGACGGGATT
# B11: GAAUCUU (DNA:RNA)
# RNA: B1 RNA with C26A, G27A, C28U, A29C, G30U, A31U
# DNA 1: CAATCTGAATTCCGGTCTCCC
# DNA 2: TGGTGGCTACGACGGGATT
# B12: CGCCCGA (DNA:RNA)
# RNA: B1 RNA with G25C, C26G, G27C, A29C
# DNA 1: CAATCTGAATTCCGGTCTCCC
# DNA 2: TGGTGGCTACGACGGGATT
# B13: AGAGCUU (DNA:RNA)
# RNA: B8 RNA with U25A, U26G, C27A, G29C, A30U, G31U
# DNA 1: CAATCTGAATTCCGGTCTCCC
# DNA 2: TGGTGGCTACGACGGGATT
# B14: GUUCUUC (DNA:RNA)
# RNA: B1 RNA with C26U, G27U, A29U, G30U, A31C
# DNA 1: CAATCTGAATTCCGGTCTCCC
# DNA 2: TGGTGGCTACGACGGGATT
# B15: AAUUAAU (DNA:RNA)
# RNA: B1 RNA with G25A, C26A, G27U, C28U, G30A, A31U
# DNA 1: CAATCTGAATTCCGGTCTCCC
# DNA 2: TGGTGGCTACGACGGGATT
# B16: GGGGGAG (DNA:RNA)
# RNA: B8 RNA with U25G, U26G, C27G
# DNA 1: CAATCTGAATTCCGGTCTCCC
# DNA 2: TGGTGGCTACGACGGGATT
# B17: AAUAUAA (DNA:RNA)
# RNA: B1 RNA with G25A, C26A, G27U, C28A, A29U, G30A
# DNA 1: CAATCTGAATTCCGGTCTCCC
# DNA 2: TGGTGGCTACGACGGGATT
# B18: ACGGUUU (DNA:RNA)
# RNA: B1 RNA with G25A, C28G, A29U, G30U, A31U
# DNA 1: CAATCTGAATTCCGGTCTCCC
# DNA 2: TGGTGGCTACGACGGGATT
# B19: UAGUCGC (DNA:RNA)
# RNA: B1 RNA with G25U, C26A, C28U, A29C, A31C
# DNA 1: CAATCTGAATTCCGGTCTCCC
# DNA 2: TGGTGGCTACGACGGGATT
# B20: CACCAUC (DNA:RNA)
# RNA: B1 RNA with G25C, C26A, G27C, G30U, A31C
# DNA 1: CAATCTGAATTCCGGTCTCCC
# DNA 2: TGGTGGCTACGACGGGATT
# B21: AGCAAAA (DNA:RNA)
# RNA: B1 RNA with G25A, C26G, G27C, C28A, G30A
# DNA 1: CAATCTGAATTCCGGTCTCCC
# DNA 2: TGGTGGCTACGACGGGATT
# B22: UUCCGUC (DNA:RNA)
# RNA: B8 RNA with G28C, A30U, G31C
# DNA 1: CAATCTGAATTCCGGTCTCCC
# DNA 2: TGGTGGCTACGACGGGATT
# B23: CAUAGUC (DNA:RNA)
# RNA: B8 RNA with U25C, U26A, C27U, G28A, A30U, G31C
# DNA 1: CAATCTGAATTCCGGTCTCCC
# DNA 2: TGGTGGCTACGACGGGATT
# B24: GUGCACC (DNA:RNA)
# RNA: B1 RNA with C26U, G30C, A31C
# DNA 1: CAATCTGAATTCCGGTCTCCC
# DNA 2: TGGTGGCTACGACGGGATT
# B25: CCUCCAC (DNA:RNA)
# RNA: B1 RNA with G25C, G27U, A29C, G30A, A31C
# DNA 1: CAATCTGAATTCCGGTCTCCC
# DNA 2: TGGTGGCTACGACGGGATT
# B26: UAUUUUU (DNA:RNA)
# RNA: B8 RNA with U26A, C27U, G28U, G29U, A30U, G31U
# DNA 1: CAATCTGAATTCCGGTCTCCC
# DNA 2: TGGTGGCTACGACGGGATT
# B27: UCACUCC (DNA:RNA)
# RNA: B1 RNA with G25U, G27A, A29U, G30C, A31C
# DNA 1: CAATCTGAATTCCGGTCTCCC
# DNA 2: TGGTGGCTACGACGGGATT
# B28: AGGGUAA (DNA:RNA)
# RNA: B1 RNA with G25A, C26G, C28G, A29U, G30A
# DNA 1: CAATCTGAATTCCGGTCTCCC
# DNA 2: TGGTGGCTACGACGGGATT
# B29: AUUGGGU (DNA:RNA)
# RNA: B8 RNA with U25A, C27U, A30G, G31U
# DNA 1: CAATCTGAATTCCGGTCTCCC
# DNA 2: TGGTGGCTACGACGGGATT
# B30: UUCCACC (DNA:RNA)
# RNA: B8 RNA with G28C, G29A, A30C, G31C
# DNA 1: CAATCTGAATTCCGGTCTCCC
# DNA 2: TGGTGGCTACGACGGGATT
# B31: GGCGCAG (DNA:RNA)
# RNA: B8 RNA with U25G, U26G, G29C
# DNA 1: CAATCTGAATTCCGGTCTCCC
# DNA 2: TGGTGGCTACGACGGGATT
# Biological target: T1, RBFOX1 RRM RbFoxmut (Fox-RRM*)
# Test: EMSA; HiTS-Eq, 1 nM pool, 10 min; buffer printed only for the single-RNA assays: 10 mM Tris pH 7.5, 150 mM NaCl, 3.4 mM EDTA, 0.001% NP-40, 30 C
# Details: tags: His6 N-terminal (pET28a); label: 5' 32P
# Procedure, shortened: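 Purified RbFox RRM (wild type or mutant) was equilibrated for 10 min in 50 µL with 1 nM of a 5′-radiolabelled pool of RNA with 7 randomized nucleotides, its flanks annealed to DNA oligonucleotides, across increasing protein concentrations. Free RNA was separated by 8% native PAGE, excised, reverse-transcribed, PCR-barcoded and sequenced on an Illumina HiSeq 2500. Relative association constants came from read-count changes of each variant against the control reaction, normalised to the cognate motif.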
row,Binder,binding signal
1,B1,0.129 KA relative to UGCAUGU
2,B2,0.0588 KA relative to UGCAUGU
3,B3,0.0702 KA relative to UGCAUGU
4,B4,0.0693 KA relative to UGCAUGU
5,B5,0.0797 KA relative to UGCAUGU
6,B6,0.0629 KA relative to UGCAUGU
7,B7,0.0681 KA relative to UGCAUGU
8,B8,0.0854 KA relative to UGCAUGU
9,B9,0.0785 KA relative to UGCAUGU
10,B10,0.0621 KA relative to UGCAUGU
11,B11,0.197 KA relative to UGCAUGU
12,B12,0.0954 KA relative to UGCAUGU
13,B13,0.0937 KA relative to UGCAUGU
14,B14,0.0794 KA relative to UGCAUGU
15,B15,0.0666 KA relative to UGCAUGU
16,B16,0.113 KA relative to UGCAUGU

row,Binder,binding signal
1,B17,0.0784 KA relative to UGCAUGU
2,B18,0.0814 KA relative to UGCAUGU
3,B19,0.0769 KA relative to UGCAUGU
4,B20,0.0639 KA relative to UGCAUGU
5,B21,0.0881 KA relative to UGCAUGU
6,B22,0.0766 KA relative to UGCAUGU
7,B23,0.089 KA relative to UGCAUGU
8,B24,0.167 KA relative to UGCAUGU
9,B25,0.0616 KA relative to UGCAUGU
10,B26,0.0838 KA relative to UGCAUGU
11,B27,0.0541 KA relative to UGCAUGU
12,B28,0.153 KA relative to UGCAUGU
13,B29,0.111 KA relative to UGCAUGU
14,B30,0.112 KA relative to UGCAUGU
15,B31,0.0989 KA relative to UGCAUGU
